Measurements taken from article PMC6515139, “Oligomeric Architecture of Mouse Activating Nkrp1 Receptors on Living Cells” (International Journal of Molecular Sciences, 2019).

Target: the molecule itself
Assay: FRET or BRET; homo-FRET (steady-state fluorescence anisotropy of EGFP, time-domain, TCSPC) at the plasma membrane of living transfected Jurkat cells on PLL-coated slides, 37 °C; semi-quantitative, calibrated by monomeric LAT and dimeric CD8α

B1: CD8α-EGFP (receptor)
chain: not shown
notes: EGFP is intracellular; also called dimeric control; source: Jurkat, transiently transfected, living cells; not shown: EGFP (with spacer GSGGGS), C-terminal, kept
steady-state anisotropy, mean: 0.243
steady-state anisotropy, median: 0.245
